The data set deals with L1210 lymphoblastic leukemia cells. Briefly: Mouse model of L1210 leukemia. As to conditions: by day 28. The protocol:
Because of its inhibitory activity on the growth of numerous cancer cells, compound 1436 was evaluated in a classical mouse model of leukemia (Baker et al., Cancer Res. 53, 1993, 3052-3057). C57B mice were inoculated with L1210 lymphoblastic leukemia cells at an inoculum that causes leukemia in 100% of animals. Mice received compound 1436 at 1, 5, 10 mg/kg every 3 days intraperitoneally.
Of particular interest is the hematological profile determined during the course of treatment. Animals were treated with cisplatin and compound 1436.

The structures appear in SMILES notation.

As to `CC(CC[C@@H](OS(=O)(=O)O)C(C)C)[C@H]1CCC2C3C(CC[C@@]21C)[C@@]1(C)CC[C@H](NCCCNCCCCNCCCN)C[C@@H]1C[C@H]3O` (stereo partly shown) [Compound 1436], the “Hematological profile during treatment” value was “near normal hematocrit, with evidence of a robust granulocyte count”.

Values taken from patent US6962909B2, “Treatment of neovascularization disorders with squalimine” (Genaera Corporation, priority 1995, dated 2005).
